# Test results taken from PubChem BioAssay AID1159614 (National Center for Advancing Translational Sciences (NCATS), 2016).
# The whole screen tested about 45,000 compounds, of which about 65 (0.1%) were called active. Calls come from the whole dose curve; as a rule, active = well fitted activation curve with a large enough effect; inconclusive = small, poorly fitted or top-dose-only effect; inactive = no such curve, though single readings can be large or run the other way. Some of the results follow.
# Biological target: Galactocerebrosidase (Homo sapiens) (UniProt P54803)
# Assay: A Novel Cell-Based Assay to Identify Small Molecules for B -Galactocerebrosidase; note: nearly all actives have a fitted effect of over 65% in size; for activation: 0% is about no effect
# Settings: 145M-Twi-hGALC-G270D cells (Twitcher mouse brain line with human GALC G270D), HMU-beta-Gal fluorescence, 48 h; series mostly up to 57.5 µM; activation: at the top concentration
# Outline: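 Live 145M-Twi cells (Twitcher mouse brain-derived, GALC-null) stably expressing human GALC-G270D, with a wild-type GALC line, were compound-treated. Residual GALC activity was then read as fluorescence from 0.1 mM final HMU-β-gal at pH 5.2; higher signal means activation.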
# Potency is the fitted concentration of half-maximal effect.
# Chain of UniProt P54803 (P54803 whole entry, looked up): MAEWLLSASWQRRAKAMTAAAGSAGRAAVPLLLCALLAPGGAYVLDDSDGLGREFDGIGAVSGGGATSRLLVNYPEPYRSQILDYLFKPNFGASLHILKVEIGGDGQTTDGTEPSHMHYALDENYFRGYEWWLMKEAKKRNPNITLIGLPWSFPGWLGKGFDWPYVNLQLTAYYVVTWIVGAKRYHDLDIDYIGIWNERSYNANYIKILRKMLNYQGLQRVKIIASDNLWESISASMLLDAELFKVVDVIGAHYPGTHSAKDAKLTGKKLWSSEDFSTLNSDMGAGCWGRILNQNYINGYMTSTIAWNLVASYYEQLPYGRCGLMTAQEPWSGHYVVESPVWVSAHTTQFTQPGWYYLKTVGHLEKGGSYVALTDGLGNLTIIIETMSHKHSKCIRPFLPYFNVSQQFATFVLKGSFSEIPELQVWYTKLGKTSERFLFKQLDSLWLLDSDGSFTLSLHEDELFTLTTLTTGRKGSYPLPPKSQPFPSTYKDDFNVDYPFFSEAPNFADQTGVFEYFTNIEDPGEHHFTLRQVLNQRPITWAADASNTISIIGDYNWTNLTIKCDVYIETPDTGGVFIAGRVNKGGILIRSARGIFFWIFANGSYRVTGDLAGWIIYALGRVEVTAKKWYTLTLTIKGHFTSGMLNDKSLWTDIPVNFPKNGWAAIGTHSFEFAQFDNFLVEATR
Structure (SMILES),activation,Potency
COc1ccc(Cl)cc1NS(=O)(=O)c1cc(Br)cc2c1N(C(=O)C1CC1)CC2,inactive: -10.6%,
CC(C)n1c(=N)c(C(=O)NCc2cccnc2)cc2c(=O)n3ccccc3nc21,,active: 3.98 µM
O=C(COc1ccc(Cl)cc1)OCc1cc(=O)n2nc(-c3cccs3)sc2n1,inactive: -3.28%,
Cc1ccc(Cc2nc3ccccc3nc2SCC(=O)NCCC(C)C)cc1,inactive: -7.28%,
COc1ccc(NC(=O)c2csc3c2CCCCC3)cc1,inactive: -16%,
Cc1ccc(Cc2c(C)nc3nc(SCC(=O)NC(C)c4ccccc4)nn3c2C)cc1 (stereo unspecified),inactive: -23.8%,
CCCN(C(=O)c1nn(-c2ccc(OC)cc2)c(=O)c2c1c1ccccc1n2C)c1ccc(CC)cc1,inactive: -7.21%,
CCOc1cccc(C(=O)Nc2ccc(S(=O)(=O)N(Cc3ccccc3)c3ccccc3)cc2)c1,inactive: -22%,
CCOc1ccc(NC(=O)Cn2cc(C(=O)c3ccc(CC)cc3)c(=O)c3cc(C)ccc32)cc1,inactive: -2.79%,
COc1cccc(-c2nc(SCc3cc(=O)c4ccc(C)c(C)c4[nH]3)n[nH]2)c1,inactive: -28.1%,
Cn1c(=O)c2c(-c3ccccc3)n3c4ccccc4nc(-c4ccccc4)c3c2n(C)c1=O,inactive: -23.6%,
COc1ccc(C(=O)NCC(c2cccnc2)N2CCc3ccccc3C2)cc1OC (stereo unspecified),inactive: -25.4%,
COC(=O)c1cc2occc2n1Cc1nc(-c2ccccc2F)oc1C,inactive: -11.7%,
COc1ccc(S(=O)(=O)c2nnn(-c3cc(Cl)c(OC)cc3OC)c2C)cc1,inactive: -43.2%,
CCOCCCn1c(SCC(=O)Nc2ccc(C(C)C)cc2)nc2c(sc3ccccc32)c1=O,inactive: -11.6%,
C[C@]12C=CC(=O)C=C1CC[C@H]1[C@@H]3C[C@@H](O)[C@](O)(C(=O)CO)[C@@]3(C)C[C@H](O)[C@@]12F,inactive: -16.4%,
O=C(CSc1nc2c([nH]c3ccccc32)c(=O)n1-c1ccc(F)cc1)NCc1ccccc1,inactive: -10.8%,
Cc1ccc(CN2CCC(CNc3ncnc4onc(-c5ccc(F)cc5)c34)CC2)cc1,inactive: -13.1%,
CCn1c(=O)c2cc(C(=O)Nc3cc(F)ccc3F)sc2c2ccccc21,inactive: 12.4%,
O=C(Nc1cccc(-c2nc3cc(Cl)ccc3o2)c1)c1cc([N+](=O)[O-])ccc1N1CCOCC1,inactive: -13.5%,
COc1ccc(CN2C(=O)c3oc4ccccc4c(=O)c3C2c2ccc(O)cc2)cc1 (stereo unspecified),inactive: -16.3%,
COc1ccccc1NC(=O)Cn1c(=O)n(Cc2ccccc2)c(=O)c2sc3ccccc3c21,inactive: 21.2%,
Cc1ccc(-c2nnc(Nc3cccc(Cl)c3)c3ccccc23)cc1S(=O)(=O)N1CCOCC1,inactive: -13.6%,

Structure (SMILES),activation,Potency
COc1ccc(C)cc1NC(=O)N(Cc1ccc(C)o1)C1CCN(C(C)=O)CC1,inactive: -24.1%,
O=C(Cn1cnc2c(oc3ccccc32)c1=O)Nc1ccccc1C(F)(F)F,inactive: -8.51%,
COc1ccc(OC)c(NC(=O)CN(C)S(=O)(=O)c2ccc(C(=O)N3CCOCC3)s2)c1,inactive: -6.4%,
CC(C)COc1ccc(C(=O)Nc2ccc(S(=O)(=O)Nc3ncccn3)cc2)cc1,inactive: -22.8%,
O=C(NCc1cccc(Cl)c1)c1cc2ccc3cccnc3c2[nH]1,inactive: -9.4%,
CCC(C(=O)Nc1cccc(Cl)c1C)n1nc(-c2ccc(C)cc2)ccc1=O (stereo unspecified),inactive: -7.15%,
CCCc1nc2sc3c(N4CCC(C)CC4)ncnc3c2c2c1CCCC2,inactive: -13.9%,
CC(C)COc1cccc(C(=O)Nc2ccc(-c3nc4ncccc4o3)cc2)c1,inactive: -5.4%,
CC1CCN(C(=O)Cn2cc(SCC(=O)NCc3ccccc3Cl)c3ccccc32)CC1,inactive: -0.899%,
CCC(=O)Nc1cc(C)c(O)c(-c2nc3ncccc3o2)c1,inactive: -12.5%,
Cc1cc(C)c(NC(=O)CSc2nc3ccccc3nc2N2CCCCC2)c(C)c1,inactive: -4.47%,
Cn1c(=O)n(-c2ccc(Br)cc2F)c(=O)c2sc3ccccc3c21,inactive: -17.6%,
COc1ccc(Cn2c(=O)[nH]c3cc(C(=O)N4CCN(c5cccc(Cl)c5)CC4)ccc3c2=O)cc1,inactive: -1.39%,
CCCN1C(C(=O)c2ccccc2)=C(OC(=O)COc2ccccc2)c2ccccc2S1(=O)=O,inactive: -15.7%,
O=C(NC1CCCCCC1)c1ccc2c(c1)sc1nc(-c3ccc(F)cc3)cn12,inactive: -5.02%,
COc1cc2c(=O)c(S(=O)(=O)c3ccc(F)cc3)cn(Cc3ccc(Cl)cc3)c2cc1OC,inactive: 2.65%,
CCOC(=O)c1ccc(CN(Cc2ccc(F)cc2)S(=O)(=O)c2cc(C(=O)Nc3cccc(C(F)(F)F)c3)ccc2F)cc1,inactive: -6.29%,
CCOc1ccc(NC(=O)CN2C(=O)C(c3ccccc3)=NC23CCC(C)CC3)cc1 (stereo unspecified),inactive: -19.7%,
Cc1cccc(N2CCN(S(=O)(=O)c3ccc4c(c3)CCCN4C(=O)C3CCC3)CC2C)c1 (stereo unspecified),inactive: -9.41%,
Cc1ccc(Cl)cc1NC(=O)C(C)n1nnc2sc3c(c2c1=O)CCCC3 (stereo unspecified),inactive: -14%,
COc1ccc(C2C(C(N)=O)=C(C)Nc3nc(CCCO)nn32)c(OC)c1 (stereo unspecified),inactive: 3.85%,
CC1(C)O[C@@H]2C[C@H]3[C@@H]4CCC5=CC(=O)CC[C@]5(C)[C@@]4(F)[C@@H](O)C[C@]3(C)[C@]2(C(=O)CCl)O1,inactive: -6.45%,
O=C(Nc1ccc(C(=O)OCc2cc(=O)n3c4c(sc3n2)CCCC4)cc1)c1ccccc1,inactive: 1.04%,
